The results in this text go back to the RNAGym collection of RNA variant scans (doi:10.7554/elife.90254).

B1: LINE1-mini (parent)
chain: GGCAGAGCUCAACACAGCGUGGCAAAGUGGCUGUGGCUAGACUGCC

The source gives no read counts; variants with many changes may rest on few reads.

The variants in the series derive from B1. Briefly: self-cleavage, relative activity (ratio to wild type); higher = more cleavage; in vitro, sequencing; the parent is a self-cleaving ribozyme.
Take AGCGGAGCUCAACACAGCGUGGCAAAGUAGCUGGGGCUAGACUGCC: the self-cleavage stood at 0.11.
The same measure for AGCAGCGCUCGACAGAGCGUGGCAAAGUGGCUGUGGCUAGACUGCC: 0.04.
As to AGCGGAGCUCAACACAGCGUGGCAAAUCGGUUGUGGCUAGACUGCC, the self-cleavage turned out to be 0.15.
Turning to AGCUGAGCUUAACACAGCGUGGUAAAGUGUCUGUGGCUAGACUGCC, the self-cleavage is 0.31.
The value for AGCAGAGCUCAACACGGCGUGGCAAAGUGGCUGUGGCCAGACUGCC was 0.02; that for AGCAGCGCUCAUCCCAGCGUGGCAAAGUGGCUGUGGCUAGACAGCC was 0.02.
The value for AGCUGAGCUCAACACACCGUGGCAAAGCGGAUGUGGCUACCCUGCC was 0.01; that for AGCGGAGCUCAACACAUUGCGGCUAAGUGGCUGUGGCUAGACUGAC was 0.03.
With AGCAGAGCUCUACACAGCGUGGCAAAGUGGCUCUGGCUAGAAUGCU, the self-cleavage amounted to 0.05.
The value for AGCCGAGCUCAACACAGCGUGGCAAAGAGGCUGUGGCGAGACUGCC was 0.03; that for AGCAGGGCUCAACACAACGUGGCAAAGUGGCUGUGGCUAGACUGCC was 0.03; that for AGCGGAGCUCAACACAGCGUGGCAAAGUGGCUGUGGCUAUACUGCC was 0.11.
With AGCGGAGUUCAACACAGCGUGGCAAAGUGGCUGUGGCUAGACUGCC, the self-cleavage turned out to be 0.08.
The value for AGCAGAGCUCAACACUGCGUGGCAAAGUGGCUGUGGCUAGAAUGCC was 0.19; that for AGCAGAGCUCAACACCGAGUGGCAACUUGGCUGUGGCUAGACUGAC was 0.03.
The value for AGCAGAGCUCUACACAGCGUGGCAAAGUGGCUGUGGUUAGACUGAC was 0.03; that for AGCAGGGCUCUACACAGCGUGGCAAAGAAGCUAUGGCUAGACUGCC was 0.02; that for AGCAGUGGUCAACACAGCGUGGCAAAGUAGCUGUGGCUAGACUGCC was 0.47.
The same measure for AGCAGAGCUCCACACAGCGUGGCCAAGUAGCUGUGGCUAGACUGCC: 0.04; for AGCAGGGCUCAACACAGCGUGGCAAAGUGGCUGUGGCUAGGCUGCC: 0.53.
As to AGCAGAGCUCAGCACUGCGUGGCAAAGUGGCUGUGGCUAGACUGCC, the self-cleavage was 0.05.
Take AGCAGCGCUCAAAACAGCGUGGCAAAGUGGCUGUGGCUAGGCUGCC: the self-cleavage was 0.29.
The same measure for AGCAGAGCUCAACACGGCAUGGCAAAGUGGCUGUGGGUAGACUGCC: 0.04.
The same measure for AGCAGAGCUCAACGCAGCGUGGCAAAGUGGCUGUGACUAGACUGCC: 0.14; for AGCAGAGCUCAACCCAGCAUGACAGAGUGGCUCUGGCUAGACUGCC: 0.04.
The same measure for AGCUGAGCUCAACACAGCGUGGCAAAGUGGAUGUGGCUAGACUGCC: 0.49; for AGCAGAGCUCAACACUGCGUGGCAAAGGGGCUGGGGCUAGACUGCC: 0.03; for AGCAGAGCUCAACCCAGCGUGGCAAAGUGGCUGUGGCUAGUCUGCC: 0.01.
AGCAGCGCUCAACACACCGUGGCAAAGUGGCUGUGGCUAGACAGCC: the self-cleavage amounted to 0.05.
The same measure for AGCAGAGCUCAACACUGCGUGGCAAAGUGGCUGUGACUAAACUUCC: 0.03; for AGCUGAGCUCAACACAGCGUGGCAAAGUAGCUGUGGCUAGACUGAC: 0.12; for AGCAGAGCUCAACACUGCGUGGAAAAGUGGCUGUGGCUAGACUGCC: 0.08.
AGCGGAGCUCAACACAGCGGGGCAAAGUGGCUGUGGCUAGACUGCC: the self-cleavage turned out to be 0.23.
On to AGCAGGGUUCAGCACAGCGUGGCAAAGUGUCUGUGGCUAGAAUGCC, for which the self-cleavage stood at 0.26.
The value for AGCAGAGCUCCACCCAGCGUGGCAAAGUGGCUGUGGCUACACUGCC was 0.03; that for AGCAGUGUACAACACAGCGUCAUAAAGUGGCUGUUGCUAGACUGCC was 0.31.
Regarding AGCAGAGCUCAACACGGCGUGGCAGAGUGGCUGUGGCUAGACUGCC, the self-cleavage came to 0.03.
The value for AGCAGAGCUCAACACGGCAUGGCACAGUGGCUGUGACCAGACAGCC was 0.01; that for AGCAGAGCUCACCACACCGUCUCAAAGUGGCUGUGGCUAGACUGCC was 0.04; that for AGCAGAGCUCCACACAGCAGGGCAAAGUGGCUGUGGCUAGACUGCC was 0.
The same measure for AGCGGAGCUCAACACAGCGUGGCAUACUGGCUGUGGCUUGACCGCC: 0.27.
The value for AGCAGGGCUCAACACAGCGUGGCAAAGUGGCUUUGGCUAGACUGCC was 0.06; that for AGCAGGGCUCAACACAGCGUGGCAAAGUGGCUCUGGCUAGACUGCC was 0.01.
Take AGCAGCGUUUAACACAGCGUGGCACCGUGGCUGUGGCUAGACUGCC: the self-cleavage was determined as 0.03.
The value for AGCGGGGCUAAACACAGCGUGGCAAAGUGGCUGUGGCUAGACUGCC was 0.03.
The same measure for AGCAGAGCUCGACCCAGCGUGGCAAAGUGGCUGUGGCUAGACUGCC: 0.03.
The value for AGCAGAGCUCUACACAGCGUGGCAAAGUGGCUGUAGCUAGACUGCC was 0; that for AGCAGCGCUCAACACAGCGGGGCAAAGUGGCUGUGGCUAGACUGCC was 0.33.
As to AGCAGAGCUCAACACGGCCUGGCAAAGUGGCUGUGGCUAGACUGCC, the self-cleavage came to 0.19.
Consider AGCAGAGCUCAACACUGCGUGGCAAAGUGGCUGUGGCUAAACUGCA, for which the self-cleavage stood at 0.02.
In the case of AGCAGAGCUCAGCACAGCGUGGCAAAGUGGCUAUGGCUAGACUGCC, the self-cleavage was found to be 0.05.
The value for AGCAGAGCUCUAGACAGCGUGGCAGAGUGGCUGUGGCUAGCCUGCC was 0.02; that for AGCCAAGCUCAACACAGCGUGGUAAAGUCGCUGUGGCUAGACUGCC was 0.05.
The value for AGCAGAGCUCAACACUGCGUAGUAAAGGCGCUGUGGCUAGACUGCC was 0.07; that for AGCGGAGCUUAUCUCAGCGUGGCAAAGUGGCUGUGGCUAGACUGCC was 0.06; that for AGCAGAGCUCAACACGGAGUGGUAAAGUGGCUGUGGCUAGUCUGCC was 0.04.
The value for AGCUGAGUUCUACACACCGUGGCAAAGUGGCUGUGGCUAGACUGCC was 0.14; that for AGCAGAGCUCAACACCGCGUGGCAAAGUCGCUGUGGCUAGACUGCC was 0.4; that for AGCCGACCGCAACACAGUGUGGCAAAGUGGCUGUGGCUAGACUGCC was 0.25.
For AGCAGAGCUCGACACAGCGUGGCAAAGUGGCUUUGGCUAGACUGCC, the self-cleavage was found to be 0.02.
The value for AGCAGAGCUCGACACAGCGUGGCAAAGUGGCUGUGGCUAAACUGCC was 0.04.
The same measure for AGCAGAGCUCACCACAGCGUGGCAAAGUGUCUCUGGCUAGCAUACC: 0; for AGCCCAGGUCAACACAGCGUGGCAAAGUGGCUGUGGCUAGACUGCC: 0.11; for AGCCGAGCUCUCCAGAGCGUGGCAAAGUGGCUGUGGCUAGACUGCC: 0.
The same measure for AGCAGCGCUCAACACAGCGUAGCAAAGUGGCUGUGGCUAGACUGCC: 0.91; for AGCGGAGCGCAACACAGCGUGGAACAGUGGCUGUGGCUAGCCUGCC: 0.03.
Turning to AGCAGAGCUCAUCACAGCGCGGCAAAGUGGCAGUGGCUAGACUGCC, the self-cleavage turned out to be 0.01.
The same measure for AGCGGAGCUCAACGCAGCGUGGCAGAGUGGCUGUGGCUAGACUGCC: 0.01.
The same measure for AGCAGAGCUCCACACAGUGUGGCAGAGUGUCUGUGGCUAGACUGCC: 0.02.
For AGCCCAGCUCAACACAGCGUGGCAAAGUGGCUGUCGCUAGACUGUC, the self-cleavage was 0.05.
The value for AGCAGAGCUCAACGCAGCGUGGCCAAGAGGCUGUGGCUAGACUGCC was 0.09; that for AGCAGGGCUCAACAGAGCGUGGCAAAGUGGCUGUGGCCAGACUGCC was 0.04; that for AGCAGAGCUCAACUCAGCGUGGCAAUGUGGCUGUGGCUAGACUGCC was 0.72.
The same measure for AGCAGAGCUCAACACGGCGUGGCAAAGUGGCUGUGGCUAGUCUGCC: 0.75; for AGCAGAGCUCCGCACAUCGUGGCAAAGUGGCUGUGGAUAGACUGCC: 0.02.
The same measure for AGCAGAGCUCAACCCAGCGUGGCAAAGUGGCUGUGGCAAGACUACC: 0.1; for AGCUGAGCUUAACACAGCGUGGCAAAGUGGCUGUGGCUUGACUGCC: 0.1.
As to AGCAGAGCUCAACACUGCGUGACAUAGUGGCUGUGGCUAGACUGCC, the self-cleavage was 0.08.
As to AGCAGAGCUCAACACUGCGUGGCAAAGUGGCUUUGGCUAGACUGCC, the self-cleavage was determined as 0.07.
The same measure for AGCAGGGCUCAACACAGCGUGGCAAAGUGUCUGUGGCUAGACUGCC: 0.18; for AGCCGAGCUCAACACAGCGCGGCAAUGUGGCUGUGGCUAGACUGCC: 0.03.
The value for AGCAGAGCUCGACACAGGGUGGCAAAGUGGCCGUGGCUAGACUGCC was 0.04; that for AGCCGAGCUCAACACAGCGUGGCAUAGGGGCUGUGGCUAGACUGCC was 0.03.
The same measure for AGCCGAGCUCAACACAGCGUGGCAAAGUGGUUGUGGCUAGACUGCC: 0.01.
As for AGCCGAGCUCAACACAGCGUGGCAAAGUGGGUGUGGCUAGACUGCC, the self-cleavage is 0.03.
With AGCAGUGCUCAACACAGCGUGCCAAAAUGGCUGUGGCUAGACUGCC, the self-cleavage is 1.2.
The value for AGCAGAGCUCUACACGGAGUGGCAAAGUGGCUGUGGCUAGACUGCC was 0.02; that for AGCAGUGCUCAACACAGCGUGGCAAUGUGCCUGUGGGUAGACUGCC was 0.31; that for AGCAGAGCUCUACACAGCGUGGCAAAGUGGCUGUGGCUAGGCUGAC was 0.
The value for AGCCGAGCACAACACAGCGUGGCAAAGUGGCUGUCGCUAGACUGCC was 0.04; that for AGCCGAGCUCAACAGCGCGUGGAAAAGUGGCUGUGGCUAGACUGCC was 0.1.
The value for AGCAGAGCUCCACAAAGCGUGGCAAAGUGUCUGUGGCUAGAGUGCC was 0.01; that for AGCCGAGCUCAACACAGCGUGUCAAAGUGGCUGUGGCUAGACUGCC was 0.06; that for AGCAGAGCUCAACACCGCGUGGCAAAGUGGCUGUGACUAAACUGCC was 0.04.
For AGCAGAGCUCAUCACAGCUUGGCAAAGGGGCUGUGGCUAGACUGCC, the self-cleavage was found to be 0.11.
With AGCAGCGCUCAAGACAGCGUGGCAAAGUCGCUGUGCCUAGACUGCC, the self-cleavage was determined as 0.21.
Regarding AGCAGAGCUCAACACUGCGUGGCAAAGUGGCUGUGACUAGACUGCC, the self-cleavage was 0.1.
The value for AGCAGCGCUAAACUCAGCGUGGCUAAGUGGCUGUGGCUAGUCUGCC was 0.08.
Consider AGCAGGGCUCAACACAGCGUGGCAAAGUGGCUGUGGGGAGACUGCC, for which the self-cleavage was determined as 0.01.
The same measure for AGCAGAGCUCAUCACAUCGUGGCAAAGUGGCUGUGGCUAGACUGCC: 0.13; for AGCAGUGCUCAACAAAGAGUGGCAAAGUGGCUAUGAAUAGACUGCC: 0.24; for AGCAGAGCUCGACACAGUGUGGCAAAGUGGCUGUGGCUAGACUGCC: 0.11.
The same measure for AGCAGGACUCAACACAGCGUGGCAAAGUGGCUGUGGCUAGACUGCC: 0.1; for AGCAGAGCUCCACACAGCGUCGCAAAGUGGCUGUGGCUAGACUGCC: 0.05; for AGCUGAGCUCAACACAGCGAGGCAAAGUGGCUGUAGCAAGAAUGCC: 0.02.
The value for AGCAGAGCUCUACACAGCGUGGCUAAGUGGCUGUGGCGAGACUGCC was 0; that for AGCCGAGCUCAACACAGCGUGGCAAAGUCGCUGUGGCUAGACAGUC was 0.02.
Turning to AGCGGAGCUCAACCCAGCGUGGCAAUGUGGUUGUGGCUAGACUGCC, the self-cleavage stood at 0.02.
The same measure for AGCAGAGCUCCACACAACGUGGCAAUGUGGCUGUGGCUAUACUGCC: 0.03.
The value for AGCGGUGCUCAACACAGCGUGGCAAAGUGGCAGUGGCUAGACUGCC was 0.04; that for AGCGGAGCUCAACACAGCGUGGUAAAGUGGCUGUGACGAGAGUGCC was 0.01; that for AGCAGAGCUCGACACAGCUUGGCAAAGUGGCUUUGGAGAGACUGCC was 0.02.
